The RNAGym collection of RNA variant scans (doi:10.1073/pnas.2313332121)
This sample is rich in variants without activity.

B1: TPR 5TU (parent)
chain: GGAUCUUCUCGAUCUAACAAAAAAGACAAAUCUGCCACAAAGCUUGAGAGCAUCUUCGGAUGCAGAGGCGGCAGCCUUCGGUGGCGCGAUAGCGCCAACGUUCUCAACUAUGACACGCAAAACGCGUGCUCCGUUGAAUGGAGUUUAUCAUG

Variants of: B1
Assay: polymerase ribozyme fitness, log enrichment relative to wild type (log ratio); higher = more active; in vitro selection for triplet polymerase activity
In short: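 To select mutant libraries of each subunit of a heterodimeric triplet polymerase ribozyme, built by PCR and transcribed, each was annealed with a biotinylated primer, partner subunit and triplets, then incubated frozen at −7 °C. Extended constructs were gel-excised, captured on streptavidin beads and amplified by RT-PCR, in one round carried out in triplicate. Illumina sequencing of input and output libraries kept genotypes with ≥10 input reads and ≥1 read per output. Fitness is the base-2 logarithm of genotype enrichment relative to wild-type enrichment, from inverse-variance-weighted replicate averages.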

Polymerase ribozyme fitness (log ratio), -3.04:
A49C C96A

Polymerase ribozyme fitness (log ratio), -3.86:
A47U G62C G84U

Polymerase ribozyme fitness (log ratio), -0.697:
A47U U55A A89G A120U U144G

Polymerase ribozyme fitness (log ratio), -2.74:
G48U C85A U127C

Polymerase ribozyme fitness (log ratio), -3.98:
G48A G59C C63U G86C

Polymerase ribozyme fitness (log ratio), -2.46:
G48C U56C A73G C118A

Polymerase ribozyme fitness (log ratio), -1.99:
G48A G59U C87U A97U G136A

Polymerase ribozyme fitness (log ratio), -1.46:
A47U G141A

Polymerase ribozyme fitness (log ratio), -1.24:
A47U C85A U139G

Polymerase ribozyme fitness (log ratio), -2.15:
A47U U56A C95U A119U U135A

Polymerase ribozyme fitness (log ratio), -4.11:
G48C G50U G92C U145G

Polymerase ribozyme fitness (log ratio), -4.08:
G48A A107G

Polymerase ribozyme fitness (log ratio), -4.12:
A49C A106G

Polymerase ribozyme fitness (log ratio), -4.17:
A49C A52C U56C C87G C95U A98G A107C A119G

Polymerase ribozyme fitness (log ratio), -0.28:
A47U C96G C116U

Polymerase ribozyme fitness (log ratio), -1.74:
G48A C57A C125U

Polymerase ribozyme fitness (log ratio), -3.78:
G48C G59C A73G C76U C96U U101C

Polymerase ribozyme fitness (log ratio), -3.25:
G48C C85U G94U C96U U144C

Polymerase ribozyme fitness (log ratio), -2.73:
A47U G48A U146G

Polymerase ribozyme fitness (log ratio), -3.84:
A47U G86U U134A

Polymerase ribozyme fitness (log ratio), -1.33:
A47U U53A

Polymerase ribozyme fitness (log ratio), -1.48:
G48U U82G C96G

Polymerase ribozyme fitness (log ratio), 0.807:
A47U C57A

Polymerase ribozyme fitness (log ratio), -1.77:
G48A A106G

Polymerase ribozyme fitness (log ratio), -1.78:
G48A G83C

Polymerase ribozyme fitness (log ratio), -1.93:
A47U C54A

Polymerase ribozyme fitness (log ratio), -3.72:
A49C C57U

Polymerase ribozyme fitness (log ratio), -3.93:
G48C A49C A122U

Polymerase ribozyme fitness (log ratio), ≤ -4.2:
A47U C51A C96U G141C U144C
A47U C54A G83U C95G C99U U130A G141U
A47U C57U G58C A60U A64G C69G G74A C87A U139C
A47U C63G C69G C76A A91U C96U G117U G140C
A47U C76U C93A
A47U G48C C51U C75G U90G C99A
A47U G58U U61A C95U C114A G141U A147C
A47U G59C G68U G80A C95U C103A G143U
A47U G59C G92U C103A A120U
A47U G68A G83A C149A
A47U G68C G86A G88U U101C C116A G143C
A47U U56A U78C A91U
A47U U78G G86A A97G A150U
G48A A49C A66C G70A C116A A122U G133A
G48A A49C G58U C79U C85A A98G
G48A A49U U53A U56A A91C C105U A106U
G48A A91G A120C U135C A147U
G48A A107U C123A
G48A A119U U148A
G48A C51G G92A C95G
G48A C54U C57A C76U A98G C99G C131G A138C
G48A C54U G80A U90G C149U
G48A C57U C75G C85G U151A
G48A C57U G62A A89U C103A U145C
G48A C57U U111C
G48A C63U C76A A138G
G48A C75G
G48A C76G A107G
G48A C85U A97U U130C A150U
G48A C87A
G48A C99U U111A A137G A147C
G48A C103G A115U
G48A G58C A73G U77G C96U G140U
G48A G62A G67A G80A G92A A113U C131A A137C U146G
G48A G80C C93G U101A U109G A137C
G48A G84A A107C C118G
G48A G88A G128A
G48A G94U G100A A110G G143C
G48A U53A C57G G92C A121G G126A A137U
G48A U61A G71A C85G A107U G124U G141U
G48A U78G
G48A U90C C132A
G48C A49C G59C C63A C85U A91C
G48C A49G C51A C87G C93U A97C
G48C A49G G80A G84U C85U
G48C A60G C76G G94C U104C C131U
G48C A60G C114G U144G C149A
G48C A91G A98U C105G A106C A113C U146A
G48C C54U A66G G92C
G48C C57G G67U C85A C93A C96U G140C
G48C C63U C69U G74A C93A U102G A107G
G48C C79A U82C C85G A122C U151G
G48C C87G C99U
G48C C114A A115U
G48C G58C C63A G74C G81A A89U A137C
G48C G68C C76A C93A U104A
G48C G70A G88U C96G
G48C G84A G141C
G48C G86U C93U U151C
G48C U55A A73G C103A C132A U139C
G48C U55A C57G A91C C95A
G48C U61A G62A A91C U139A
G48U A49C C69G G86A C93U U139G A150G
G48U A52C C63A A64C A73G C87A C103G U135C
G48U A52C U53A G74A C79U C87A G143A C149G
G48U A52G C54A A64G C85U
G48U C63U A64U
G48U C79A C93U C132A U148A
G48U C85U G140U
G48U C87G A98U
G48U G58A C75A A91U C95A A119U
G48U G65A C95U C105U C129G C132U
G48U G70A G92C G140A
G48U G83C C108G U135G A150G
G48U G94A U151C
A49C A52C C57A A91U C96G G112A G117U G143C A150G
A49C A52C C87A U90G C95G
A49C A52C C96A U102G U127C U148A
A49C A52C U53C U148G
A49C A52G C72A
A49C A52G C93U A121C
A49C A52G U55A C57U C75A U77A C87U G94U G117A A122G U148A
A49C A52U A138U
A49C A60G C69A G128U C131U U134C G141U
A49C A60G G68U C72U C123G G124A G143C
A49C A60U G65C G136U G143C
A49C A64C G71A C87U U148A
A49C A64G G70C G88C G94A A106U
A49C A73G A91G C108U A119C C125A
A49C A91U G92C A107C C118U
A49C A91U G100U
A49C A91U G117U G143A
A49C A119U
A49C A121C G133A
A49C A121U U144A
A49C C51U A73G
A49C C51U C57A
A49C C51U G74U C93A A97G C103A
A49C C54A C87U A97G U144G
A49C C54A C99A A113G G140C A147C
A49C C54U A110G A138G A150C
A49C C54U C96A C103U
A49C C54U U55A U78G G84U
A49C C57A C85A U127G C132A A142G
A49C C57A C96G U104G A107C U139C G143A U146C
A49C C57G G68C G83C G84A U101G A115U
A49C C69G C96A
A49C C69G C96A C108U
A49C C72U G88U A91C C105G U146G
A49C C75U C76A U77G G81U C87U C93U G94A C131G U134G
A49C C76U G94C A147U
A49C C85G
A49C C87A A119G G126A G133U U135A
A49C C87A C132A
A49C C93A
A49C C93G
A49C C93G G140A
A49C C99G
A49C C114U C129A U148C
A49C C131U
A49C G50A U55G G59U C87A U127C A138C U146A
A49C G50C C76U A91U A97U U111C G143C A150U
A49C G50C U53A C79A A137U
A49C G50U C57U C72U G86A G141C
A49C G50U C96G
A49C G58A A98U C114G
A49C G59A A60G A106G
A49C G59A C87U U148A C149U
A49C G65A C114G G136U
A49C G68A U102G A107G
A49C G68C C87A A91C U101C G133A
A49C G68C G81C C93A G126A
A49C G71C A120U G143A U145C U146A
A49C G81A A107C C108G U127A
A49C G83A A89U U90G U101C

Polymerase ribozyme fitness (log ratio), -0.0812:
A47U G126C

Polymerase ribozyme fitness (log ratio), -2.44:
G48U G83A U134A G136A

Polymerase ribozyme fitness (log ratio), -0.542:
A47U U55A

Polymerase ribozyme fitness (log ratio), -2.63:
G48A C57U G83C U101C
